# Measured values published in PubChem BioAssay AID504832 (National Center for Advancing Translational Sciences (NCATS), 2011).
# Among all 310,000 compounds or so, about 18,000 (5.8%) were called active. The inconclusive results got no clear call from the source; some entries with a clear call stand among them for comparison. Calls follow the shape of the dose curve; as a rule, active = well fitted inhibition curve with a large enough effect; inconclusive = small, poorly fitted or top-dose-only effect, or another doubt; inactive = no such curve, though single readings can be large or run the other way. Potencies of inconclusive entries are left out as doubtful fits.
# Test: Primary qHTS for delayed death inhibitors of the malarial parasite plastid, 48 hour incubation
# Details: P. falciparum luciferase growth in erythrocytes; series mostly up to 28.7 µM; activity change, negative = inhibition: at the top concentration
# In short: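 Growth was read as firefly luciferase luminescence after a 48 h, 37 C, 5% CO2 exposure of compounds to reporter-bearing P. falciparum cultures (0.1% parasitemia, 2% hematocrit final) in Albumax-supplemented RPMI 1640.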
# % is scaled to controls: 0 for no effect and ±100 for the full control effect; potency is read from the fitted curve at half-maximal effect; tags tell the direction and shape of the fitted curve.
Structure (SMILES),Potency,"activity change, negative = inhibition"
COc1ccc(S(=O)(=O)Nc2cc(C(=O)NCCC(C)C)ccc2N2CCOCC2)cc1,active: 8.28 µM,–
Cc1ccc(NC=C(S(=O)(=O)c2ccccc2)S(=O)(=O)c2ccccc2)cc1,"inconclusive [inhibitor, single point]",–
N=C1/C(=C\c2ccc(-c3ccc(C(=O)O)cc3)o2)C(=O)N=C2SC=C(c3ccccc3)N12,"inconclusive [inhibitor, partial curve, poor fit]",–
COC(=O)[C@@]1(Cc2ccccc2)[C@H]2c3cc(C(=O)N4CCCC4)n(CCSCCO)c3C[C@H]2CN1C(=O)c1ccccc1,active: 1.65 µM,–
COc1ccc(N2C(=O)c3ccccc3C2O)cc1 (centres undefined),–,inactive: 45.8%
CCOC(=O)N/N=C/c1c(F)cccc1F,–,inactive: 36.9%
Cc1ccc(S(=O)(=O)NC(CC(C)C)C(=O)N2CCCCCCC2)cc1 (centres undefined),"inconclusive [inhibitor, single point]",–
O=c1c2ccccc2ncn1Cc1ccc(Cl)c(Cl)c1,"inconclusive [inhibitor, partial curve, poor fit]",–
CN1CCCCc2c1[nH]c1ccccc1c2=O,"inconclusive [inhibitor, partial curve]",–
O=C(NCC(c1ccco1)N1CCCCC1)C(c1ccccc1)c1ccccc1 (centres undefined),"inconclusive [inhibitor, single point]",–
O=C(OCCNc1ccc(C(F)(F)F)cc1[N+](=O)[O-])c1cc2ccccc2oc1=O,–,inactive: 53.1%
Cc1cc(NC(=O)CN2CCc3ccccc3C2)nc2c1c(=O)oc1ccccc12,active: 10.4 µM,–
O=C(CN1CCN(S(=O)(=O)c2ccccc2F)CC1)Nc1ccnn1C1CCCC1,"inconclusive [inhibitor, single point]",–
CCc1c(O)cc2n(c1=O)-c1ccc(Cl)cc1C2(C)C,active: 11.7 µM,–
CC(C(=O)NCCc1ccc(F)cc1)N1CCN(Cc2ccccc2)CC1 (centres undefined),"inconclusive [inhibitor, partial curve]",–
Cc1nn(C)c(C)c1S(=O)(=O)N(CC(=O)NCCCOC(C)C)c1ccc(C(C)C)cc1,"inconclusive [inhibitor, partial curve]",–
O=C(CCc1nc2ccccc2c(=O)[nH]1)Nc1ccccc1N1CCCC1,"inconclusive [inhibitor, single point]",–
O=C(NNC1CC(c2ccccc2)=NN1C(=O)c1ccccc1)c1ccccc1 (centres undefined),–,inactive: -23.5%
CCn1c(SCC(=O)Nc2cccc(C)c2)nc2ccccc2c1=O,"inconclusive [inhibitor, partial curve, poor fit]",–
